Laboratory results: PubChem BioAssay AID1508624 (National Center for Advancing Translational Sciences (NCATS), 2021)
The whole screen tested about 48,000 compounds, of which about 120 (0.25%) were called active. Another 4% or so got no clear call; they are omitted. The call rests on the fitted dose curve; in most records, active means well fitted activation curve with a large enough effect; inconclusive means small, poorly fitted or top-dose-only effect, or another doubt; inactive means no such curve, though single readings can be large or run the other way. Some of the results follow.

Experiment: Primary qHTS for Identification of Small Molecule Activators of Huntingtin-Antisense Promoter Activity; further: nearly all actives have a fitted effect of over 55% in size
Settings: HEK293 HTT-AS promoter firefly luciferase reporter, 24 h; series mostly up to 57.5 µM; activity change, positive = activation: at the top concentration
How it was run: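 Quantitative HTS used concentration series of up to 57.5 uM final on HEK293 luciferase reporter cells, 24 h at 37 degrees C. Readout was Dual-Glo firefly luminescence.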

Activity change, positive = activation, inactive:
Cc1ccc(CN2CCC(CNC(=O)Nc3ccc(Cl)cc3)C2)cc1 (stereo not given) -26.2%
Cc1ccc(NC(=O)CCn2c(=O)c3cccn3c3ccccc32)cc1C -26.9%
Cc1ccc(-n2c(=O)c3cccnc3n2CC(=O)Nc2ccc(Br)cc2)cc1C -21.2%
CCC(=O)N1CCc2cc(Br)cc(S(=O)(=O)CCC(=O)NCCc3cccc(C)c3)c21 -11.8%
COc1ccc(Cl)cc1N(C)C(=O)c1ccc2c(=O)n3c(nc2c1)CCCCC3 -12.5%
COc1ccc(NC(=O)Cn2c(=O)n(CCC(=O)NCc3ccccc3OC)c(=O)c3ccccc32)cc1Cl -13.4%
Cc1ccc(Cn2ccn(Cc3ccccc3F)c(=O)c2=O)cc1 6.62%
COc1cccc(CNC(=O)CCc2c(C)nc3c(c(C)nn3-c3ccc(C)c(C)c3)c2C)c1 -36%
Cc1nc2c(-c3ccccc3)c(C)nn2c(C)c1CCC(=O)N1CCN(c2ccc(F)cc2)CC1 -20.3%
Cc1c(Cl)cccc1NC(=O)COCc1cc(-c2ccc3c(c2)OCO3)on1 4.78%
CSc1ccc(CCNC(=O)c2ccc(-c3nc(COc4ccccc4)c(C)o3)cc2)cc1 -8.44%
Cc1cccc(N2CCN(CCCNc3ncnc4onc(-c5ccc(Cl)cc5)c34)CC2C)c1 (stereo not given) -5.44%
COc1ccc(CCNC(=O)CCn2c(=O)c3ccccc3n(Cc3cc(C)ccc3C)c2=O)cc1OC -17.9%
CCOc1ccccc1CNC(=O)C1CCN(C(=O)N2CC(CC)Oc3ccc(C)cc32)CC1 (stereo not given) -35.2%
COc1cccc(CNC(=O)C(=O)NCC(c2ccco2)S(=O)(=O)c2cccs2)c1 (stereo not given) -8.53%
CC(C)(C)C(=O)Cn1c(=O)n(-c2ccc(Cl)cc2)c(=O)c2c3c(sc21)CCCC3 -7.35%
O=C(/C=C/c1ccccc1)N1CCN(Cc2cc(=O)n3nc(-c4ccccc4F)sc3n2)CC1 -3.31%
C[C@@H](NCCCc1cccc(C(F)(F)F)c1)c1cccc2ccccc12
COc1ccc(N2CC(NC(=O)/C=C\c3ccccc3)CC2=O)cc1 (stereo not given) -7.58%
O=C(Cn1c(SCCOc2ccccc2)nc2ccccc21)N1CCOCC1 -8.11%
Cc1cc(OCCn2cc(C(=O)c3cccs3)c3ccccc32)ccc1Cl -23.2%
O=C(Nc1ccc2nc(SCC(=O)N3CCOCC3)sc2c1)c1cccc(Cl)c1 -27.3%
Cc1c(C(=O)OCCOc2ccccc2)[nH]c2c1C(=O)CC(c1ccccc1)C2 (stereo not given) -41.4%
CCc1nnc(SCC(=O)Nc2ccccc2Cl)nc1CC -11.3%
CCc1ccc(NCc2cc3cc4c(cc3n(CC(=O)Nc3cccc(OC)c3)c2=O)OCO4)cc1 -21.2%
COCCNC(=O)Cn1nc(C)c2c(C)n(-c3ccc(C)cc3)nc2c1=O -26.6%
CCc1ccc2ncc3c(-c4ccccc4)nn(-c4ccccc4)c3c2c1 -20.2%
CC(C)COc1ccc(C(=O)NCC2(N3CCN(C)CC3)CCCCC2)cc1 -16.1%
CC[N+](C)(C)c1cccc(O)c1 0.257%
COc1cccc(NC(=O)CSc2nnc3scc(-c4ccc(Cl)cc4)n23)c1 -33.1%
COc1ccc(N(C(=O)c2ccc(OC)c(OC)c2)S(=O)(=O)c2ccc(Cl)cc2)cc1 -15.3%
Cc1cc(NS(=O)(=O)c2ccc(NC(=O)c3ccccc3C)cc2)nc(C)n1 -8.8%
Cc1ccc(C)c(NC(=O)CC2NCCNC2=O)c1 (stereo not given) -14.4% [at 11.5 µM, percent change from vehicle, -100% = no light]
N#Cc1ccccc1Cn1c(=O)n(CCCC(=O)NCc2ccc3c(c2)OCO3)c(=O)c2sccc21 -21.8%
Cc1ccc(NC(=O)C2CCCN(c3nnc(-n4c(C)ccc4C)s3)C2)c(C)c1 (stereo not given) -4.85%
CCCC(C(=O)NCc1cccc(Cl)c1)N1Cc2ccccc2C1=O (stereo not given) -5.7%
Cc1ccn2c(=O)cc(COc3ccc(NC(=O)COc4ccc(Cl)cc4)cc3)nc2c1 -3.96%
CCCN(CCC)C(=O)Cn1c(=O)n(-c2cccc(OC)c2)c(=O)c2c3c(sc21)CCCC3 -9.53%
Cc1csc2nc(COC(=O)c3cccc(NC(=O)COc4ccc(Cl)cc4)c3)cc(=O)n12 -13.4%
O=C(CCCCn1c(=O)c2ccccc2n(Cc2ccccc2Cl)c1=O)NCCc1ccccc1 -4.81%
Cc1ccc2nc(-c3ccc(Cl)c(NC(=O)COc4cccc(C)c4C)c3)oc2c1 7.48%
CCN1CCOC(=O)C1CC(=O)Nc1cc(C)ccc1OC (stereo not given) -14.1%
Cc1cc2c(cc1NS(=O)(=O)c1ccc(F)cc1)n(C)c(=O)c(=O)n2C 11.2%
CCCc1cc(=O)[nH]c2nnc(SC(C)CC)n12 (stereo not given) 0.0701%
CCOC(=O)c1sc(NC(=O)/C=C/c2ccc(C(C)C)cc2)c(C(=O)OCC)c1C -9.05%
CCc1cccc(C)c1NS(=O)(=O)c1cc2[nH]c(=O)c(=O)[nH]c2cc1C -3.25%
CCN(CC)c1ccc(NC(=O)CCS(=O)(=O)c2cc3c(cc2Cl)NC(=O)CO3)c(C)c1 -3.5%
CNC(=O)C1CCC(Cn2c(=O)c3sccc3n(Cc3ccc(F)cc3)c2=O)CC1 (stereo not given) -9.32%
CC1(C(=O)Nc2cccc(Br)c2)Cc2ccccc2C(=O)O1 (stereo not given) -12.4%
CC(=O)N1CCCc2cc(S(=O)(=O)N3CCC(C(=O)NC4CCC(C)CC4)CC3)ccc21 (stereo not given) -20.1%
CCc1ccc(NC(=O)CSc2nccn2-c2ccc(OC)cc2)cc1 -14.4%
COCCCNC(=O)CCC(=O)N1Cc2cccc(OC)c2Oc2ncccc21 -9.65%
CCCc1cc(=O)oc2c3c(ccc12)OCN(Cc1ccc(OC)cc1)C3 -16.1%
CCn1c(C(=O)NCc2ccccc2C)cc2oc3ccccc3c21 -29.3%
COC(=O)c1ccccc1NC(=O)c1ncoc1-c1ccco1 -8.66%
Cc1nc(-c2cccc(NC(=O)Nc3ccc([N+](=O)[O-])cc3)c2)no1 -60.2%
Cc1ccccc1OCCSc1nc2ccc(NC(=O)c3ccccc3)cc2s1 -35%
NC(N)=NS(=O)(=O)c1ccc(N)cc1 -0.377%
Cc1ccc(CCNC(=O)C(NS(=O)(=O)c2ccc3c(c2)oc(=O)n3C)C(C)C)cc1 (stereo not given) -4.18%
CCOC(=O)CSc1ccc2nnc(CCNS(=O)(=O)c3ccccc3)n2n1 -12.4%
Cc1ccc(N(CC(=O)N2CCN(c3ccccc3F)CC2)S(=O)(=O)c2c(C)noc2C)cc1 -9.56%
O=C(Nc1cccc(C(=O)OCc2cc(=O)n3nc(C4CC4)sc3n2)c1)c1cccc(F)c1 0%
COc1ccc(Cn2ccn(Cc3cccc(C)c3)c(=O)c2=O)cc1 -6.78%
COc1cc2c(cc1OC)C(COc1ccc3c(C)cc(=O)oc3c1)N(C(=O)c1cccc(C)c1)CC2 (stereo not given) 4.56%
CCOc1ccc(-n2c(SCC(=O)NCC3CCCO3)nc3c([nH]c4ccccc43)c2=O)cc1 (stereo not given) -16.9%
O=C(NCCc1ccccc1)c1ccc2c(c1)N(Cc1c(F)cccc1Cl)C(=O)CS2 -33.9%
Cn1c(=O)c(=O)n(C)c2cc(S(=O)(=O)N3CCCC3C(=O)Nc3ccccc3F)ccc21 (stereo not given) 1.35%
COc1ccc(NC(=O)CSc2nncn3c2cc2oc(C)cc23)cc1OC -8.93%
Cc1ccc(N(CC(=O)Nc2cccc(F)c2)S(=O)(=O)c2cccs2)cc1 -27%
NC(=O)CSc1oc(-c2ccco2)nc1S(=O)(=O)c1ccc(Cl)cc1 1.94%
Cc1ccc(NC(=O)c2cc3cc(C)ccc3n2C)cc1 5.29%
CCOC(=O)c1ccc(NC(=O)Cn2c(=O)cc(C)c3c(C)nn(-c4cccc(F)c4)c32)cc1 -4.78%
CCCc1cnc2c(c1SCC(=O)N1CCC(C)CC1)c(=O)n(C)c(=O)n2C -19.3%
CCC1CCCCN1C(=O)Cn1c(=O)oc2cc(S(=O)(=O)N3CCCCC3)ccc21 (stereo not given) -14.2%
O=C(Nc1nc2n(n1)C(c1ccc(F)cc1)C=C(c1ccccc1)N2)c1ccc(Cl)cc1 (stereo not given) -27.7%
Cc1ccc(NC(=O)C(Cc2ccccc2)NS(=O)(=O)c2ccc3c(c2)oc(=O)n3C)cc1F (stereo not given) -2.26%
C[C@@H](O)[C@H]1C(=O)N2C(C(=O)O)=C([C@H]3CCCO3)S[C@H]12 2.13%
CCCN1C(=O)c2[nH]nc(-c3ccccc3O)c2C1c1ccc(OCc2ccccc2)c(OC)c1 (stereo not given) -45.5%
COC(=O)Cn1nc(C)c2c(C)n(-c3ccccc3)nc2c1=O 3.04%
COc1cccc2c1cc1c(=O)n(CC(=O)NC3CCCCC3)nc(C)n12 -9.55%
COc1cc(C(=O)N2CCN(c3ccc(Nc4ccc(C)cc4)nn3)CC2)cc(OC)c1OC 6.92%
Cc1ccc(C(=O)Nc2cccc(OCc3cc(=O)n4c5c(sc4n3)CCCC5)c2)cc1 -1.15%
CN1CCc2c(n(Cc3ccc(C(=O)NO)cc3)c3ccccc23)C1 -13%
CCOc1ccccc1NC(=O)C1CCN(S(=O)(=O)c2ccc3c(c2)CC(C)N3C(C)=O)CC1 (stereo not given) -18.3%
COc1ccc2c(C)cc(SCC(=O)Nc3nsc(-c4ccccc4C)n3)nc2c1 -27.8%
CCOC(=O)c1ccccc1NC(=O)Cn1c(=O)n(-c2cccc(C)c2)c(=O)c2c1c1cc(C)ccc1n2C -11.4%
CCOc1ccc(Cn2c(CNS(=O)(=O)c3ccc(Cl)s3)nc3cccnc32)cc1 -30.6%
COc1cccc(N2CCN(S(=O)(=O)c3ccc(-n4cnnn4)cc3)CC2)c1 -6.57%
COc1cc(C2C(C(=O)Nc3ccccc3C)=C(C)Nc3ncnn32)ccc1OCC(N)=O (stereo not given) -15.6%
O=C(NCC(c1ccc2c(c1)OCO2)N1CCOCC1)c1cccc(Cl)c1 (stereo not given) -12.9%
Nc1ccc(N2CCN(c3ncc(C(F)(F)F)cc3Cl)CC2)c(C(F)(F)F)c1 -37.9%
O=C(NCc1ccc(Cl)cc1)C(=O)NCC(c1cccs1)S(=O)(=O)c1cccs1 (stereo not given) -30.6%
Cc1cc(C)cc(NC(=O)C(=O)NCC(c2cccnc2)N2CCc3ccccc3C2)c1 (stereo not given) -26.1%
Clc1cccc(-n2ncc3c(N4CCC(Cc5ccccc5)CC4)ncnc32)c1 -6.41%
CCCCNC(=O)C1CCC(Cn2c(=O)c3sccc3n(CC(=O)N3CCCC3)c2=O)CC1 (stereo not given) -3.6%
